The campaign covered roughly 280,000 compounds. About 820 (0.29%) were called active. The inconclusive results got no clear call from the source; some entries with a clear call stand among them for comparison. The call rests on the fitted dose curve; in most records, active means well fitted curve in either direction with a large enough effect; inconclusive means small, poorly fitted or top-dose-only effect; inactive means flat fitted curve, though single readings scatter. Potencies of inconclusive entries are left out as doubtful fits.
Experiment: Total Fluorescence Counterscreen for Inhibitors of the Interaction of Thyroid Hormone Receptor and Steroid Receptor Coregulator 2
Settings: TRb/SRC2 Texas Red total fluorescence interference; series mostly up to 106 µM
Method in brief: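 Flags fluorescent or light-absorbing compounds by total fluorescence, S + 2P, at 555 nm excitation and 632 nm emission. Mixture: 20 nM Texas Red SRC2 peptide, 0.6 uM human TRb LBD, 1 uM T3, 5% DMSO; compound exposure 5 h at ambient temperature.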
Potency means the concentration at half of the fitted maximal effect; tags describe the fitted curve by direction and shape or compound fluorescence and quenching.

Compound | Potency
Nc1c(O)ccc2c1C(=O)c1ccccc1C2=O | inconclusive [fluorescent, partial curve]
CCOc1ccc(N(CC(=O)Nc2cccc(OC)c2)S(=O)(=O)c2c(C)noc2C)cc1 | inactive
COc1ccc(NC(=O)CCS(=O)(=O)c2cc(Br)cc3c2N(C(C)=O)CC3)c(OC)c1 | inconclusive [quencher, partial curve]
O=C1C(c2ccncc2)N(CCC2=CCCCC2)C(=O)CN1C1CCCCC1 (stereo not given) | inconclusive [quencher, partial curve]
COc1ccc(/C=C(\C#N)c2nc(-c3cc(Cl)ccc3OC)cs2)cc1 | inconclusive [falling, full curve, poor fit]
CCN(CC)CCNC(=O)c1ccc(NC(C)=O)cc1 | inconclusive [quencher, full curve]
Cc1nc(N)sc1-c1csc(Nc2ncccn2)n1 | inconclusive [quencher, partial curve]
O=C(CCc1c[nH]c2ccccc12)N/N=C/c1ccc2c(c1)OCO2 | inconclusive [falling, single point]
Cc1cc(=O)c2c(O)c3c(O)cc(O)c4c5c(O)cc(O)c6c(O)c7c(=O)cc(C)c8c1c2c(c34)c(c65)c78 | active: 14.1 µM [fluorescent]
CCOc1ccc(CCNC(=O)CCc2cn(Cc3ccccc3F)c3ccccc23)cc1OCC | inactive
CC(=O)c1cccc(NC(=O)/C=C/c2ccc([N+](=O)[O-])s2)c1 | inactive
Nc1c(C(=O)Nc2nc3ccccc3s2)sc2nc(-c3cccs3)ccc12 | active: 31.6 µM [quencher]
CN(Cc1ccco1)C(=O)c1ccc2c(c1)N(Cc1ccccc1F)C(=O)c1ccccc1S2 | inconclusive [falling, full curve, poor fit]
COC(=O)c1cc2sc(C)cc2n1CC(=O)Nc1ccc(C)c(C)c1 | inconclusive [quencher, full curve]
CCOCCCNCc1ccc(Cl)cc1 | inconclusive [quencher, partial curve]
C=C(C)C1CC[C@]2(CO)CC[C@@]3(C)[C@H](CCC4[C@@]5(C)CCC(O)C(C)(C)C5CC[C@@]43C)C12 (stereo not given in full) | inconclusive [quencher, full curve]
O=C(CSc1nnc(-c2cccc(Cl)c2)o1)N1CCc2ccccc21 | inactive
CC(=O)Nc1cccc(NC(=O)CN2C(=O)CCSc3ccccc32)c1 | inconclusive [quencher, full curve]
Cc1c(C(=O)NCc2ccc(Cl)cc2)sc2nc3n(c(=O)c12)CCCCC3 | inconclusive [falling, full curve, poor fit]
N/C(=N\OC(=O)c1ccc(F)cc1)c1ccc(Br)cc1 | inactive
C=CCn1c(COc2ccccc2F)nnc1SCC(=O)c1c[nH]c2ccccc12 | inconclusive [quencher, full curve]
CCN(Cc1ccncc1)Cc1c(O)ccc2cc(Br)ccc12 | inactive

Compound | Potency
Nc1c(C(=O)Nc2ccccc2)sc2nc3c(cc12)CN(Cc1ccccc1)CC3 | inactive
Cc1nc(N2CCCC2)c2c(C(=O)N3CCN(c4cc(Cl)ccc4C)CC3)c(C)oc2n1 | inconclusive [falling, partial curve, poor fit]
Nc1c(S(=O)(=O)O)cc(Nc2ccc(Nc3nc(Cl)nc(Nc4ccc(S(=O)(=O)O)cc4)n3)c(S(=O)(=O)O)c2)c2c1C(=O)c1ccccc1C2=O | active: 22.4 µM [quencher]
C=CCNC(=O)C12CCC(C)(C(=O)[C@H]1Br)C2(C)C (stereo not given in full) | inconclusive [rising, single point]
Cc1nn(-c2ccccc2)c2c1N(CC(=O)N1CCN(c3ccccc3F)CC1)C(=O)CS2 | inconclusive [falling, full curve, poor fit]
COc1ccccc1C(=O)Nc1c(C(=O)c2ccccc2)oc2ccccc12 | active: 0.0562 µM [quencher]
CCOc1ccc(N(CC)C(=O)c2noc3c2COc2ccc(C)cc2-3)cc1 | inconclusive [falling, full curve, poor fit]
c1ccc(CSc2nnc(-c3ccco3)c(-c3ccco3)n2)cc1 | inconclusive [quencher, partial curve]
CCn1c(CN2CCCCC2)nc2cc(NC(=O)COc3ccccc3C(C)(C)C)ccc21 | active: 282 µM [quencher]
Oc1cc(-c2ccccc2)c2ccccc2c1 | inactive
C[N+]1(CCOc2ccc([N+](=O)[O-])cc2)CCOCC1 | inactive
Oc1ccc(Nc2nc(-c3ccc(O)cc3)cs2)cc1 | inconclusive [quencher, partial curve]
Cc1cc2ncc(-c3ccc(Cl)cc3)c(N)n2n1 | inactive
Cc1ccc2[nH]c(=O)c(CN(Cc3cccs3)C(=S)NCc3ccco3)cc2c1 | inconclusive [falling, full curve, poor fit]
O=C(c1cc2nc(-c3ccco3)cc(C(F)(F)F)n2n1)N1CCc2ccccc2C1 | inconclusive [rising, single point]
Cc1ccc(-n2c3c(c(=O)[nH]c2=O)C(NS(=O)(=O)c2ccc(Cl)cc2)(C(F)(F)F)C(=O)N3)cc1 (stereo not given) | inconclusive [falling, partial curve, poor fit]
CN(C)S(=O)(=O)N(CC(=O)Nc1ccc(Br)cc1F)c1ccccc1 | inconclusive [falling, full curve, poor fit]
Cc1ccc(-c2cc(C(=O)N/N=C/c3c[nH]c4ccccc34)n[nH]2)o1 | inconclusive [quencher, partial curve]
Cc1ccc(-n2ncc(C(=O)Nc3ccc(C)c(F)c3)c2C2CCN(C(=O)OC(C)(C)C)CC2)cc1C | inconclusive [falling, partial curve, poor fit]
CCOc1cc(C2c3c(oc4ccccc4c3=O)C(=O)N2Cc2ccc3c(c2)OCO3)ccc1O (stereo not given) | inconclusive [rising, single point]
Cc1nc2sc(C(=O)NCc3ccc(Cl)cc3)c(NC(=O)c3ccccc3)c2c(C)c1C | inconclusive [falling, full curve, poor fit]
CCCN(C(=O)c1cc2c(Cl)nc3ccccc3c2s1)c1cccc(C)c1 | inconclusive [falling, full curve, poor fit]

Compound | Potency
Cc1ccc(NC(=S)N(CCN(C)C)Cc2cccs2)c(C)c1 | inactive
COc1ccc(N(CN2C(=O)c3ccccc3C2=O)C(=O)COc2ccc(Cl)cc2Cl)cc1 | inconclusive [falling, full curve, poor fit]
O=c1n(-c2ccccc2)c(=O)n2n1CC[C@H]1/C(=N\OC[C@@H](O)COCc3ccco3)[C@H]3O[C@@H]3[C@@H](O)[C@@H]12 | inconclusive [falling, full curve, poor fit]
O=C(Nc1ccc(Cl)cc1)C1CCN(c2nc3ccccc3n3cccc23)CC1 | inconclusive [quencher, full curve]
Cc1cc([N+](=O)[O-])cc(C)c1OCC(=O)N/N=C/c1ccc(OC(=O)c2ccccc2)cc1 | inactive
COc1ccc(NC(=O)c2ccc(Cn3cc(Cl)cn3)cc2)cc1 | inactive
COc1ccccc1CNC(=O)C1CCN(Cc2nc(-c3ccc(OC)c(OC)c3)oc2C)CC1 | inconclusive [falling, full curve, poor fit]
Cc1cc(N=Cc2c(O)ccc3ccccc23)no1 | inconclusive [quencher, partial curve]
O=C(O)c1ccc(CN2C(=O)CSC2=S)cc1 | inconclusive [fluorescent, partial curve]
CC(=O)c1ccc(NS(=O)(=O)c2ccc3ccccc3c2)cc1 | inactive
COc1ccc(OC)c(NC(=O)Cc2coc3ccc(C(C)C)cc23)c1 | inconclusive [falling, partial curve, poor fit]
O=C(Nc1ccc(Cl)cc1)Nc1nnc(CSCc2ccc(Cl)cc2)s1 | inactive
CCOCCCNC(=O)C(c1ccccc1)N(Cc1cccs1)C(=O)CNC(C)=O (stereo not given) | inconclusive [falling, full curve, poor fit]
Cc1ccc(-n2ncc(C(=O)N3CCN(c4cccc(C)c4)C(C)C3)c2C2CCN(C(=O)OC(C)(C)C)CC2)cc1 (stereo not given) | inconclusive [quencher, partial curve]
CCOc1ccc(N2CC(c3nc4ccccc4n3Cc3cccc(Cl)c3)CC2=O)cc1 (stereo not given) | inconclusive [falling, full curve, poor fit]
O=C(O)c1ccc2c(c1)ncn2-c1ccc(F)c(F)c1 | inconclusive [quencher, full curve]
Cn1cc([N+](=O)[O-])c(C(=O)Nc2ccc3nc(-c4ccccc4)[nH]c3c2)n1 | inactive
COC(=O)[C@H](Cc1ccccc1)NC(=O)[C@@H](C)CO | inconclusive [quencher]
COc1cccc(NC(=O)C2CCN(c3nn4cc(-c5ccc(F)cc5)nc4s3)CC2)c1 | inconclusive [quencher, full curve]
Cc1ccc(Cl)cc1NC(=O)C(=O)NCC(c1cccnc1)N1CCc2ccccc21 (stereo not given) | inconclusive [quencher, partial curve]
COCCN(C(=S)Nc1ccc(C)cc1C)C(C)c1ccco1 (stereo not given) | inactive

Reference: PubChem BioAssay AID1479 (National Center for Advancing Translational Sciences (NCATS), 2009)
